The source of these data is the RNAGym collection of RNA variant scans (doi:10.1093/nar/gkz1192).

Read counts are not given, so values of variants with three or more changes are uncertain.

B1: CPEB3 Ribozyme (parent)
chain: UAACAGGGGGCCACAGCAGAAGCGUUCACGUCGCAGCCCCUGUCAGAUUCUGGUGAAUCUGCGAAUUCUGCUGUAUAUCUC

This data set covers variants of B1. As to the kind of experiment: self-cleavage, relative activity (ratio to wild type); higher = more cleavage; in vitro, sequencing. The method in brief:
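For each CPEB3 ribozyme variant, relative activity is its cleaved/total read fraction divided by the unmutated ribozyme's. Barcoded error-prone PCR libraries were transcribed by T7 RNA polymerase (5 hours, 37°C) and held in DNase I for 15 min before an EDTA stop, with cleavage occurring throughout. Template-switching reverse transcription and Illumina sequencing were used to read the RNAs. A 5-read minimum applied, and results are the mean of three batches.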
Consider UAACAGGGGGGCACAGCAGAAGCGUUUACGUCGCAGCCCCAGUCAGAUUCUGGUGAAUCCGCGAAUACUGCUGUAUAUCUC, for which the self-cleavage came to 0.28.

As to UAACAGGGGGUCACGGCAGUAGCGUUCACGUCGCAGCCCCUGUCAGAUUCUGGUGAUUCAGCGAAUUCUGCUGUGUAUCUC, the self-cleavage turned out to be 0.04.

For the variant UAACAGGGGGGCACAGCAGAAGCGUUCACGUCGCACCCCCAGUCAGAUUCUGGUGAAUCUGCGAAUUCUGCUGUAUGUCUC, the self-cleavage worked out at 0.05.

Regarding UAACAGGGGGGCACAGCAGAAGCGUUCACGUCGCGGCCCCAGUCAGAUUCUGGUGAAUCUGCGAAUUCUGCUGUAUAACUC, the self-cleavage is 0.05.

In the case of UAACAGGGGGUCUCAGCAGAAGCGUUCACGUCGCAGCCCCUGUCAGAUUCUGGCGAAUCUGCGAAUUCUGCUGUAUAUCUC, the self-cleavage amounted to 0.28.

As to UAACAGGGGGGCACAGCAGAAGCGUUCACGUCGCUGCCCCUGCCAGAUUCUGGUGAAUCUGCGAAUUCUGCUGUAUAUCUC, the self-cleavage was 0.1.

Turning to UAACAGGGGGGCACAGCAGAAGCGCUCACGCCGCUGCCCCUGUCGGAUUCCGGUGAAUCUGCGAAUUCUGCUGUAUAUCUC, the self-cleavage is 0.04.

On to UAACAGGGGGGCACAGCAGAAGCGCUCACGUCGCAGCCCCCGUCAGAUUCUGGUGAAUCUGCGAAUACUGCUGGAUAUCUC, for which the self-cleavage worked out at 0.11.

For UAACAGGGGGGCACAGCAGAAGCGUUCACGUCGCAGCCCCUGUCAGGUUCUGGUGAAUCUGCGAAUUCCGCUGUAUAUCCC, the self-cleavage was 0.22.

Turning to UAACAGGGGGUCACGGCAGAAGCGUUCACGUCGCAGCCUCUGUCAGAUUCUGGUGAAUCUGCGAAUUCUGCUGUAAAUCAC, the self-cleavage turned out to be 0.12.

Turning to UAACAGGGGGUCCCGGCAGAAGCGUACACGUCGCAGCCCCUGUAAGAUUCUGGUGAAUCUGCGAGUUCUGCUGUAUAUCAC, the self-cleavage was determined as 0.02.

In the case of UAACAGGGGGUCACAGCGGAAGCGUUCACGCCGCAGCCCCUGUCAGAUUCUGGUGAAUCUGCGAAUUCUGCUGUAUAUCUC, the self-cleavage is 0.25.

Regarding UAACAGGGGGUCACGGCAGAAGCGUUCACGUCGCAGCCACUGUCAGAUUCUGGUGAGUCUGCGAAUUCUGCUGUAUAUCUC, the self-cleavage turned out to be 0.28.

Consider UAACAGGGGGGCACAGCAGAAGCGUUCACGUCGCAGCCCCUGUCAGAUUCUGGUGAAACUGCGAAUUCUGCUGUGUAUCUC, for which the self-cleavage was determined as 0.23.

Consider UAACAGGGGGGCACAGCAGAAGCGCUCACGUCGCAGCCCCUGUCAGAUUCUGGCGAAUCUGCGAAUUCUGCCGCAUAUCUC, for which the self-cleavage was found to be 0.06.

Turning to UAACAGGGGGGCACAGCAGAAGCGUUCACGUCGCAGCCCCUGUCAGAUUCUGGUGAAUCUGCGAUUUCUGCCGUAUAUCUC, the self-cleavage worked out at 0.44.

On to UAACAGGGGGUCACUGCAGAAGCGUUCACGUCGCAGCCCCUGCCAGAUUCUGGUGAAUCUGCGGAUUCUGCUGUAUAUCUC, for which the self-cleavage came to 0.15.

Regarding UAACAGGGGGUCACGGCAGAAGCGUUCACGUCGCAGCCCCUGUCAGUUUCUGGUGAAUCUGCGAAUCCUGCCGUAUAUCUC, the self-cleavage came out at 0.56.

With UAACAGGGGGGCACAGCAGAAGCGCUCACGUCGCAGCCCCUGUCAGAUUCUGGUGAAUCUGCGAAGUCUGCUGUAUAUCUC, the self-cleavage is 0.09.

In the case of UAACAGGGGGGCACAGCAGAAGCGCUCACGUCGCAGCCCCUGUCAGAUUCUGGUGAAUCUGCGUAUUCUGCUGUAUAUCUC, the self-cleavage amounted to 0.28.

As for UAACAGGGGGGCACAGCAGAAGCGCUCACGUAGCAGCCCCUGUCGGAUUCUGGUGAAUCUGCGAAUUCUGCUGUAUAUCCC, the self-cleavage came out at 0.35.

With UAACAGGGGGGCAAAGCAGAAGCGAUCACAUCGGAGCCCCUGCCAGAUUCAGGUGAAUCUGCGAAUUCUGCUGUAUAUCUC, the self-cleavage turned out to be 0.05.

Consider UAACAGGGGGGCACAGCAGAAGCGUUCACGUCGCAGCCCCUGUCAGAUUCUGAUGAGUCUGCGAAUUCUGCUGUAUAUCUC, for which the self-cleavage is 0.53.

As for UAACAGGGGGUCACGGCAGAAGCGUUCACGUCGCAGCCCCUGUCAGAUUCUGGUGAAUCCGCGAAUUCUGCUGCAUAUCUC, the self-cleavage was found to be 0.08.

Regarding UAACAGGGGGGCACAGCAGAAGCGUCCACGUCGCGGCCCCUGUCAGGUUCCGGUGAAUCUGCGAAUUCUGCUGUAUAUCUC, the self-cleavage turned out to be 1.07.

Consider UAACAGGGGGGCACAGCAGAAGCGUUCACGUCGCAGCCCCUGUCAGAUUCUGGUGAGUCUGCGAAUUCUGCUGUAUGUCUC, for which the self-cleavage amounted to 0.18.

Turning to UAACAGGGGGGCACAGCAGAAGCGUUCACUUCGCAGCCCCUGUCAGAUUCUGGUGAAUCUGCGAGUUCUGCAGUAUAUCUC, the self-cleavage was found to be 0.1.

As to UAACAGGGGGGCACAGCAGAAGCGUUCACGUCGCAGCCCCAGUCAGAUUCUGGUGAAUCUGUGAAUUCUGCUGUAUAUCUC, the self-cleavage worked out at 0.07.

Consider UAACAGGGGGGCACAGCAGAAGCGUUCACGUCGCAGCCCCUGUCAGAUUCUGGUGAAUCUGCGAAUCCUGCUAUAUAUCUC, for which the self-cleavage was found to be 0.02.

Consider UAACAGGGGGUCACAGCGGAAGCGUUCACGUCGCAGCCCCUGUCAGAUUCUGGUGAGUCUGCGAAUUCUGCUGUAUAUCUC, for which the self-cleavage was 0.3.

On to UAACAGGGGGUCACGGCAGAAGCGUUCACGUCGCAGCCCCUGUCAGAUUCCGGUGAAUCUGCGAAUUCUGCUGUAUAUCUC, for which the self-cleavage turned out to be 0.24.

UAACAGGGGGGCACAGCAGAAGCGUUCACGUCGCAGCCCCUGUCAGAUUCUGGUGAAUAUGCGUGUUCUGCUGUAUAUCUC: the self-cleavage was found to be 0.02.

Consider UAACAGGGGGUCACCGCAGAAGCGUUCACGUCGCAGCCCCUGUCAGAUUCUGGCGAAUCUGCGAAUUCUGCCGUAUAUCUC, for which the self-cleavage stood at 0.16.

Take UAACAGGGGGGCACAGCAGAAGCGUUCACGUCGCAGCCCCUGUCUGAUUCUGGUGGACCUGCGUAUUCUGCUGUAUAUCUC: the self-cleavage was 0.04.
